Laboratory results from PubChem BioAssay AID686978 (National Center for Advancing Translational Sciences (NCATS), 2013).
Several values for one entry are separate records, joined by “and”; a condition that tells them apart may be missing. Identical values can stand only once. The campaign covered roughly 420,000 compounds. About 64,000 (15%) were called active. The shares of active, inactive and inconclusive entries below differ from those in the screen. The call rests on the fitted dose curve; in most records, active means well fitted inhibition curve with a large enough effect; inconclusive means small, poorly fitted or top-dose-only effect; inactive means flat fitted curve, though single readings scatter. A potency beside an inconclusive call is a rough fit, not a confirmed value.

Test: qHTS for Inhibitors of human tyrosyl-DNA phosphodiesterase 1 (TDP1): qHTS in cells in absence of CPT; further: nearly all actives have a fitted effect of over 55% in size
Details: DT40 Tdp1-/- hTDP1 cells, no CPT, ATP luminescence, 48 h; activity change, negative = growth inhibition: at 46.2 µM (top of the series) unless noted
Method in brief: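 Compound effects on proliferation are scored in DT40 Tdp1-/-;hTDP1 cells in the absence of CPT. ATP levels (CellTiter-Glo luminescence) are recorded after a ≥48 hr, 37 °C incubation.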
On the % scale 0 is the no-effect control and ±100 the full control effect; potency means the concentration at half of the fitted maximal effect; tags describe the fitted curve by direction and shape.

Row | SMILES | Potency | activity change, negative = growth inhibition
1 | C#CC[N+](C)(C)CCCCCCCCC | active: 2.31 µM | –
2 | CCCCCCCCCc1nc2sc3c(c2c(=O)n1NC(=O)c1ccc([N+](=O)[O-])cc1)CC(C)(C)OC3 | inconclusive: 29.1 µM [inhibitor, single point] | –
3 | COc1cccc(N2CC(O)=C(c3nc4ccccc4c(=O)[nH]3)C2=N)c1 | active: 1.16 µM | –
4 | O=C(CCCCCn1c(=O)c2sccc2n(CC(=O)Nc2cccc(Cl)c2)c1=O)NCc1ccc2c(c1)OCO2 | active: 14.6 µM | –
5 | CCOc1ccc(-c2nnn(CC#N)n2)cc1OC | inconclusive: 29.1 µM [inhibitor, single point] | –
6 | C[C@H](CO)N1C[C@H](C)[C@@H](CN(C)S(C)(=O)=O)Oc2ccc(N(C)C)cc2C1=O | inactive | –
7 | Cc1cccc(C(C)C)c1NC(=O)COC(=O)c1cccc(S(=O)(=O)N2CCc3ccccc3C2)c1 | inactive | –
8 | COCc1c(C(=O)Nc2ccc3nc(N4CCOCC4)sc3c2)oc2ccccc12 | inconclusive: 29.1 µM [inhibitor, single point] | –
9 | COc1ccc(-c2nc3c(c(SCC(=O)Nc4ccc(C(=O)O)cc4)n2)Cc2ccccc2O3)cc1 | inactive | –
10 | CC(Oc1ccccc1)C(=O)Nc1ccc(S(=O)(=O)N2CCN(C)CC2)cc1 (centres undefined) | inactive | –
11 | Cc1ccc(C(=O)Nc2cccc(-c3nc4ncccc4o3)c2)cc1 | inconclusive: 18.4 µM [inhibitor, single point] | –
12 | COc1cccc(NC(=O)C2C3C=CC4(O3)C2C(=O)N(CCCN2CCCCC2)C4C(=O)NC2CCCCC2)c1 (centres undefined) | inconclusive: 0.58 µM [inhibitor, single point] | –
13 | Cc1nc(N2CCOCC2)c2c(C(=O)NCc3cccc(Cl)c3)c(C)oc2n1 | inactive | –
14 | CC(C)Cn1c(SCC#N)nc2ccccc2c1=O | inconclusive: 12.6 µM [inhibitor, partial curve] and inconclusive: 8.2 µM [inhibitor, partial curve, poor fit] | –
15 | CCCOc1c(OC)cccc1C1CC(=O)Nc2cc3c(cc21)OCO3 (centres undefined) | active: 20.6 µM | –
16 | COc1cc(Cl)c(C)cc1NC(=O)c1cc(S(=O)(=O)N(C)C)ccc1N1CCCC1 | inconclusive: 23.1 µM [inhibitor, single point] | –
17 | Cc1ccc(S(=O)(=O)N2CCN(C(=O)COC(=O)Cc3c(F)cccc3Cl)CC2)c(C)c1 | inconclusive: 29.1 µM [inhibitor, single point] | –
18 | COC(=O)c1ccc(CNC(=O)[C@@H]2CCCN2S(=O)(=O)c2ccccc2F)cc1 | inactive | –
19 | CCc1c(C)sc2c1CCN(C(=O)Nc1cc(OC)c(OC)c(OC)c1)C2c1ccccc1 (centres undefined) | inconclusive: 18.4 µM [inhibitor, single point] | –
20 | Cc1nc2c(c(=O)c3ccccc3n2C)c(=O)n1-c1ccc(F)cc1 | – | inconclusive: -31.7% [inhibitor]
21 | O=C(NCCN1CCN(c2ccccc2)CC1)C1CCCN(S(=O)(=O)c2cnc[nH]2)C1 (centres undefined) | inactive | –
22 | COC(=O)c1cccc(Oc2nc3c(c(=O)n(C)c(=O)n3C)n2C(C)C)c1 | inconclusive: 18.4 µM [inhibitor, single point] | –
23 | CC(=O)Nc1ccc(S(=O)(=O)NC2CCSc3ccccc32)cc1 (centres undefined) | inconclusive: 14.6 µM [inhibitor, partial curve, poor fit] | –

Row | SMILES | Potency | activity change, negative = growth inhibition
24 | CN1CCN(C(=S)Nc2ccc(Cl)cc2)CC1 | inactive | –
25 | CSc1ccccc1OCc1cc(C(=O)N(C)Cc2c(C)n[nH]c2C)no1 | inconclusive: 7.31 µM [inhibitor, partial curve] | –
26 | Cc1ccc(C(=O)NCCc2ccccc2)cc1 | inconclusive: 23.1 µM [inhibitor, single point] | –
27 | Cc1ccccc1CNC(=O)c1ccccc1NS(C)(=O)=O | inconclusive: 32.6 µM [inhibitor, partial curve, poor fit] | –
28 | CN(CC(=O)NC(=O)NCc1ccccc1)Cc1cccc(Cl)c1Cl | inconclusive: 29.1 µM [inhibitor, partial curve, poor fit] | –
29 | O=C(Cc1ccc(Br)cc1)N1CCN(c2ccccc2O)CC1 | inactive | –
30 | COc1cccc(C(=O)NC2(C(F)(F)F)C(=O)Nc3c2c(=O)[nH]c(=O)n3-c2ccc(C)cc2)c1 (centres undefined) | active: 23.1 µM | –
31 | Cc1ccc(C(C(=O)NCc2ccco2)N(CCc2ccccc2)C(=O)Cn2nnc3ccccc32)o1 (centres undefined) | inconclusive: 16.4 µM [inhibitor, single point] | –
32 | CCOC(=O)c1c(C)n(C)c2ccc(OCC(O)CN3C(=O)c4ccccc4S3(=O)=O)cc12 (centres undefined) | active: 16.4 µM | –
33 | COc1ccc(C(=O)OCC2CC(c3ccccc3)=NO2)cc1OC (centres undefined) | inconclusive: 29.1 µM [inhibitor, single point] | –
34 | COc1ccccc1NC(=S)N1CCN(C/C=C/c2ccccc2)CC1 | inconclusive: 18.4 µM [inhibitor, single point] | –
35 | COc1ccc(-c2cc(C(F)(F)F)nc(SCC(=O)Nc3sc4c(c3C#N)CCC4)n2)cc1 | active: 5.8 µM | –
36 | CCCN(CC(=O)Nc1ccc(C)cc1Br)CC(=O)Nc1ccc(F)c(F)c1F | active: 18.4 µM | –
37 | Cc1ccc(CN(C)C(=O)CN2C(=O)NC(c3ccccc3)(c3ccccc3)C2=O)c(C)c1 | active: 16.4 µM | –
38 | C[C@H](CO)N1C[C@H](C)[C@@H](CN(C)Cc2ccc(Oc3ccccc3)cc2)Oc2ccc(NC(=O)Cn3cnnn3)cc2C1=O | inconclusive: 29.1 µM [inhibitor, single point] | –
39 | COc1ccc(CCNS(=O)(=O)c2cc3c4c(c2)CCN4C(=O)CC3)cc1 | inconclusive: 16.4 µM [inhibitor, single point] | –
40 | CC1(C)Cc2c(cnn2-c2ccccc2)C(NC(=O)C2(C(N)=O)CC2)C1 (centres undefined) | inactive | –
41 | Cc1oc2cc(O)ccc2c(=O)c1-c1ccccc1 | inconclusive: 16.4 µM [inhibitor, single point] | –
42 | CC(=O)Nc1ccc(C(=O)OCC(=O)c2ccc(S(=O)(=O)N3CCCCC3)cc2)cc1 | inconclusive: 9.2 µM [inhibitor, single point] | –
43 | COc1ccc(C(=O)N/N=C/c2cc(Br)ccc2O)cc1OC | active: 3.26 µM | –
44 | CC(C)Cn1c(/C=C/c2ccccc2)nc2ccccc21 | inconclusive: 18.4 µM [inhibitor, single point] | –
45 | CN(C)S(=O)(=O)c1cccc(NC(=O)COC(=O)c2cn(-c3ccccc3)nc2-c2ccccc2)c1 | active: 20.6 µM | –
46 | Clc1ccc(Cn2nnc(-c3ccc(CN4CCOCC4)cc3)n2)cc1 | inconclusive: 25.9 µM [inhibitor, single point] | –

Row | SMILES | Potency | activity change, negative = growth inhibition
47 | COC(=O)/C=C1\SC(=NC(=O)c2cccc([N+](=O)[O-])c2)NC1=O | inconclusive: 29.1 µM [inhibitor, single point] | –
48 | c1cncc(-c2nc(NCc3ccco3)c3ccccc3n2)c1 | inconclusive: 18.4 µM [inhibitor, single point] | –
49 | Cc1cc(-c2ccccc2)nc(N/N=C/c2ccccc2)n1 | active: 23.1 µM | –
50 | COC(=O)c1cccc(C(=O)NCc2nc(-c3cccc(NC(=O)c4ccoc4C)c3)oc2C)c1 | active: 20.6 µM | –
51 | Cc1ccc2c(=O)cc(C(=O)Nc3ccc(S(=O)(=O)N(C)Cc4ccccc4)cc3)oc2c1C | active: 3.26 µM | –
52 | Cc1cccn2c(=O)c3cc(C(=O)NCCN4CCOCC4)c(=N)n(Cc4cccnc4)c3nc12 | active: 8.2 µM | –
53 | CC(C)NC(=O)C1CCN(C2CCN(C(=O)c3ccc4cccc(F)c4n3)CC2)CC1 | inactive | –
54 | COc1cccc(OCc2ccc(C(=O)NCC3CCCO3)cc2)c1 (centres undefined) | inconclusive: 29.1 µM [inhibitor, single point] | –
55 | Nc1ncnc2c1nc(Cl)n2C1OC(CO)C(O)C1O (centres undefined) | active: 0.461 µM | –
56 | Cc1c(C)n2c(SCC(=O)N3CC(C)OC(C)C3)nnc2[nH]c1=O (centres undefined) | inactive | –
57 | CCN(CC)C(=O)Cc1c(OC)ccc2cc(Br)ccc12 | inconclusive: 18.4 µM [inhibitor, single point] | –
58 | CN(N=O)C(=O)N[C@@H]1[C@@H](O)[C@H](O)[C@@H](CO)O[C@@H]1O | inactive | –
59 | COc1cccc(C(=O)O/N=C/c2ccc(Sc3ccc(C)cc3)nc2)c1 | inconclusive: 16.4 µM [inhibitor, single point] | –
60 | COc1ccc(OCc2cc(C(=O)NCC(C)Oc3cccnc3)no2)c(Cl)c1 (centres undefined) | inconclusive: 20.6 µM [inhibitor, single point] | –
61 | Cc1nn(Cc2ccccc2)c(C)c1C(=O)OCC(=O)c1cc(C)n(CC(F)(F)F)c1C | active: 25.9 µM | –
62 | Cc1ccc(S(=O)(=O)N(CC(O)CN2CCOCC2)c2cc(Cl)ccc2Cl)cc1 (centres undefined) | inconclusive: 16.4 µM [inhibitor, partial curve, poor fit] | –
63 | Cn1c(C(=O)NCCCN2CCN(c3ccc(F)cc3)CC2)cc2c(=O)n(C)c3ccccc3c21 | inconclusive: 18.4 µM [inhibitor, single point] | –
64 | Cn1c(C(=O)NCCCN2CCCCC2)cc2sccc21 | inactive | –
65 | COc1ccc(N2C(=O)C(Cl)=C(Nc3ccc(OC)cc3OC)C2=O)cc1 | inconclusive: 18.4 µM [inhibitor, single point] | –
66 | COc1cc(CN2CCN(CC#Cc3ccccc3)CC2CCO)cc(OC)c1 (centres undefined) | inconclusive: 29.1 µM [inhibitor, single point] | –
67 | O=C(Nc1ccc(Cl)cc1F)c1cc(S(=O)(=O)N2CCCCC2)ccc1F | inactive | –
68 | O=C(Nc1ccc2c(c1)OCCO2)C(C1CC1)N1CCN(c2ccc(C(F)(F)F)cn2)CC1 (centres undefined) | inconclusive: 25.9 µM [inhibitor, single point] | –
69 | CC(=O)NC12CC3CC(C1)CC(C(=O)Nc1nc4c(C)cccc4s1)(C3)C2 | inconclusive: 16.4 µM [inhibitor, single point] | –
